Measurements from paper PMC7254866 (ACS chemical biology, 2019).

Tested on: Rg3GUS, Rh2GUS, H11G11, and FpL2-6
Assay: Inhibition of the four regorafenib-glucuronide processing GUS enzymes
Settings: all four GUS enzymes

In the case of Cc1c(-c2ccc(O)cc2)n(Cc2ccc(OCCN3CCCCCC3)cc2)c2ccc(O)cc12 [bazedoxifene], the “potency in comparison (in words)” value is reported as “minor potency improvements over raloxifene”.
